From paper PMC7819943, “Rice protein-binding microarrays: a tool to detect cis-acting elements near promoter regions in rice” come the findings set out here.

The list shows a part of the results.

For the assay, the target named is T1, OsWOX13 (Oryza sativa, UniProt Q5QMM3 1-267).
T1 sequence: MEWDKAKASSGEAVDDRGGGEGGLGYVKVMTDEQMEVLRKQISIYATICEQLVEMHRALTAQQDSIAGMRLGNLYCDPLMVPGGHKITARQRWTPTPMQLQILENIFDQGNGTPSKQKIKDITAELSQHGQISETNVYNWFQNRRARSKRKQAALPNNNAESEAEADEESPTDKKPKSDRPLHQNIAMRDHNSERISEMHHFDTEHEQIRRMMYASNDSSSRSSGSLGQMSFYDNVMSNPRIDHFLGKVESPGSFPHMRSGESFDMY
Description: protein-binding microarray (RPBM); PBS, 2% BSA, 51.3 ng/ul salmon testes DNA, 50 uM zinc acetate, 200 nM TF, 25 C, 1 h; high values mean tight binding. To be noted: protein: recombinant; tags: N-terminal polyhistidine and DsRed monomer fusion (pET32a); label: CyDye5-dUTP incorporated in the synthesized complementary strand; 3' TTTTT single-stranded linker to array surface; dsDNA, one strand shown. In outline: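 In PBS with 2% BSA, salmon testes DNA and 50 µM zinc acetate, 200 nM protein was incubated on a custom Agilent array at 25 °C for 1 h and then washed off. The array had been made double-stranded by primer extension with Cy5-dUTP and blocked with 2% BSA. The proteins were transcription factors fused N-terminally to polyhistidine and DsRed, expressed in E. coli BL21-CodonPlus and purified on Ni–NTA. The binding signal is per-feature fluorescence intensity (arbitrary units) from an Axon 4000B scanner.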
Regarding “GATGATAGGCCGTCAAAGCTAGCTAAGCTACGCGATGAATCGGAGTCACCTAGTGCAG”, the binding signal was 3510 fluorescence intensity (a.u.).

Turning to “CACAAATTATTATTTTAAAGCGTGCGGTGTCCACCGGTAACGGAGTCACCTAGTGCAG”, the binding signal is 15300 fluorescence intensity (a.u.). Under “GCAGAATTTTCAAATTAGAGCCAATTCGATCGGCTAGGAACGGAGTCACCTAGTGCAG” stands 3230 fluorescence intensity (a.u.); under “AAGACGATAGATTTGAGAACATGTGTTGTGTTGTGTTTGACGGAGTCACCTAGTGCAG”, 3290 fluorescence intensity (a.u.); under “TGACCTGATTACTGACTGACTAATGAGGTGATGCAGATTTCGGAGTCACCTAGTGCAG”, 18200 fluorescence intensity (a.u.). On to “TTATACTGCACTTAATTATTTTGCTATAGTCAAATTACAACGGAGTCACCTAGTGCAG”, for which the binding signal was 4500 fluorescence intensity (a.u.).

For the sequence “AACGCAACCTGATTAGTTTAAGCCACCGGAATGCTGTTCGCGGAGTCACCTAGTGCAG”, the binding signal is 6910 fluorescence intensity (a.u.). Under “CCATTAATTAGCCCATAAAGAATAGGCCCATTAATGAGCCCGGAGTCACCTAGTGCAG” stands 26100 fluorescence intensity (a.u.); under “GATTACCTGATTACCTGATTACCTGTGTCACTGACAACTCCGGAGTCACCTAGTGCAG”, 20800 fluorescence intensity (a.u.). As to “AATAACTGATGACTGTGAATGATTGATACGATGTAGTAGGCGGAGTCACCTAGTGCAG”, the binding signal was 65300 fluorescence intensity (a.u.). Under “GTTAATTACCGCCGATATTCATATCTCTGCTTACAAACGGCGGAGTCACCTAGTGCAG” stands 21100 fluorescence intensity (a.u.); under “GCCTAATTAGTCCATGATTAGCTATAAGTGCTACAATAACCGGAGTCACCTAGTGCAG”, 28100 fluorescence intensity (a.u.); under “TTCTAATTGATGTTTGTGATAATGTTAGGAATCCGGAGGGCGGAGTCACCTAGTGCAG”, 50800 fluorescence intensity (a.u.). Under “CGCAGATTAAACTGGCATTCTTGCACAGAAACCCCTACATCGGAGTCACCTAGTGCAG” stands 19100 fluorescence intensity (a.u.); under “AAAATTAACAATAATCCTGCCCTGTCTGGCCACTTCCTGTCGGAGTCACCTAGTGCAG”, 10400 fluorescence intensity (a.u.); under “AACAATGATAGAGCTTTATGATTTGTTAATGGTTGCTGCACGGAGTCACCTAGTGCAG”, 30100 fluorescence intensity (a.u.). Under “GGCTGACGTCTAAATAAATTTTGAGTAAATTACATTAGCGCGGAGTCACCTAGTGCAG” stands 15600 fluorescence intensity (a.u.); under “GATGCTGTCAATTTAGGAATGCTCTCTTCACTACCACGGGCGGAGTCACCTAGTGCAG”, 6980 fluorescence intensity (a.u.). Regarding “TCACATTGACTGATGATCCAAATGGCAAAGAACCACAATGCGGAGTCACCTAGTGCAG”, the binding signal was 24700 fluorescence intensity (a.u.). Under “TCCTATAGATTGAGAGGAGTAAACTTAATCAGGTATTAACCGGAGTCACCTAGTGCAG” stands 23600 fluorescence intensity (a.u.). Under “TTCAATTGATGTTCTTGCTTGCAAGTTGCAACGAGATTTGCGGAGTCACCTAGTGCAG” stands 7920 fluorescence intensity (a.u.). For “CTTCTAAACTTGATGTACGCAATCATCTGATGGTGTGGGTCGGAGTCACCTAGTGCAG”, the binding signal was 3810 fluorescence intensity (a.u.). On to “GCCCAATTCCACTGCAAATTTAAATGGGCCAGGATCCGGACGGAGTCACCTAGTGCAG”, for which the binding signal was 3320 fluorescence intensity (a.u.). Under “CGGATCTTCAATCAGCAGTGTAGATCTTGGGTGGATGTGGCGGAGTCACCTAGTGCAG” stands 8270 fluorescence intensity (a.u.). Under “TAATCCAAATGATTGGTCAAACAAGAGACATCTACCAAAACGGAGTCACCTAGTGCAG” stands 7190 fluorescence intensity (a.u.); under “AGGAAATGAGATTGATGAAAACACTGTTTCTGCAGTTCTGCGGAGTCACCTAGTGCAG”, 20800 fluorescence intensity (a.u.); under “TGATGACTGGGCTGTCACATCAGTATGTTTGGACCAAGTCCGGAGTCACCTAGTGCAG”, 12500 fluorescence intensity (a.u.). Under “ATCCGATACTAGATTGCTATAATATGGGACGGAGGGAGTACGGAGTCACCTAGTGCAG” stands 3180 fluorescence intensity (a.u.).

“ATAAAATGGGATTTATATGTCTATTATGTATTCTCAGTTTCGGAGTCACCTAGTGCAG”: the binding signal is 5700 fluorescence intensity (a.u.). “TTTTAATTGCATTCCCCGTAAAAGATAGTAGTACCAATGTCGGAGTCACCTAGTGCAG”: the binding signal is 29000 fluorescence intensity (a.u.). Under “GTAACACAATTGATTCATGGAAGACAATATTTCCCCTAGCCGGAGTCACCTAGTGCAG” stands 6760 fluorescence intensity (a.u.); under “TGGCACAATAAATTATCGTTGAAAATTTTATTTTGGTTTGCGGAGTCACCTAGTGCAG”, 4420 fluorescence intensity (a.u.); under “AAGATCGATAAATTAATTGAGCGGCGGCGGCTGGGACTATCGGAGTCACCTAGTGCAG”, 28700 fluorescence intensity (a.u.). In the case of “TTGAAAATTTAAAGCAAAATTAAGCATACTTTCTTGCCTTCGGAGTCACCTAGTGCAG”, the binding signal is 3510 fluorescence intensity (a.u.).

As to “TCAATTAACTGCAACATTTCATTCATACGTAGTGAAACATCGGAGTCACCTAGTGCAG”, the binding signal was 8320 fluorescence intensity (a.u.).

As to “CCCAAGCAAGAGAAATGATTGGTGATGATTCACGAATATGCGGAGTCACCTAGTGCAG”, the binding signal is 8090 fluorescence intensity (a.u.). Take “AATTTTGATAGGGTAGAATTGAAAATGTTTATTTGGATTGCGGAGTCACCTAGTGCAG”: the binding signal is 10500 fluorescence intensity (a.u.). Under “AAAGATTTAATTGTTATGAACACAATGGTGTAATCGGATCCGGAGTCACCTAGTGCAG” stands 31700 fluorescence intensity (a.u.); under “ATGGATTTGATCACCATTTACAAACAGCTACTTGAGGCATCGGAGTCACCTAGTGCAG”, 3270 fluorescence intensity (a.u.); under “TCATCAATCATTGTCACTTACTACTTTTGTCTTCGTCTCCCGGAGTCACCTAGTGCAG”, 40900 fluorescence intensity (a.u.).

“CTTTTGACTGCCACAGTGTGTTAGGTATATGTTTGTTTCACGGAGTCACCTAGTGCAG”: the binding signal was 4920 fluorescence intensity (a.u.). Under “GGATTATCAATCAAGCAAGCAAACAAACACTAAGGAAACCCGGAGTCACCTAGTGCAG” stands 15000 fluorescence intensity (a.u.). Under “TCTGATAGGACGGCCCATACCTACCTCCACTTCCGCCGGACGGAGTCACCTAGTGCAG” stands 8180 fluorescence intensity (a.u.); under “TACTTTTGATTGTTTCACGAACCATGGCTTTGAATTCTTTCGGAGTCACCTAGTGCAG”, 18500 fluorescence intensity (a.u.); under “GCTTAACTTTGCTCCTACGTCAATTATCAGTAGCTCAGGGCGGAGTCACCTAGTGCAG”, 4670 fluorescence intensity (a.u.). Under “GGGCTCAATTACACAGTTTCTTCAACCTCCAGCCATTTAGCGGAGTCACCTAGTGCAG” stands 4340 fluorescence intensity (a.u.). Turning to “ACGTAATTTTATTTTGATGCTAACCGCACAATTACGCGGGCGGAGTCACCTAGTGCAG”, the binding signal is 23300 fluorescence intensity (a.u.). As for “CATGTATCAATAATTTGTAACGAAATTAGTACTCCCTCTGCGGAGTCACCTAGTGCAG”, the binding signal is 27300 fluorescence intensity (a.u.).

Take “ATAATTAGTCGTAACTACGAGCACCTGTATCAAGTCATGCCGGAGTCACCTAGTGCAG”: the binding signal was 11100 fluorescence intensity (a.u.).

Consider “TACCAAGTACGTGATTAGATCGAAGCATAGATCAAAGCCACGGAGTCACCTAGTGCAG”, for which the binding signal is 5120 fluorescence intensity (a.u.). Under “GGGAAGGCGGCGATTGATTTGATTTGACCAAGATTGGTCGCGGAGTCACCTAGTGCAG” stands 28700 fluorescence intensity (a.u.).

“ACTAGATGGCTGAATGGAATAGATTATTCCCTATGGACTACGGAGTCACCTAGTGCAG”: the binding signal was 4800 fluorescence intensity (a.u.). For the sequence “TCTCAATTTGCAATTAACCCAAAACGATCGAGCGACCAAGCGGAGTCACCTAGTGCAG”, the binding signal was 13500 fluorescence intensity (a.u.). Under “CCTCCTGTTAACTCGTATCACCTCCCTCCCTCACTGAACCCGGAGTCACCTAGTGCAG” stands 7850 fluorescence intensity (a.u.).
